Reference: PubChem BioAssay AID248 (DTP/NCI, 2004)
Toxic doses and inconclusive results are not listed. For part of its entries the source gives two or more results. They are shown here; other results are not. An entry can have further records. The records of an entry are repeated measurements (runs, samples, wells, individuals or studies). What stands in brackets tells the records apart. Letters hold for one entry only.

Tested on: L1210 leukemia ip in BDF1 mice, survival T/C
Test: NCI In Vivo Anticancer Drug Screen. Data for tumor model L1210 Leukemia (intraperitoneal) in B6D2F1 (BDF1) mice
Settings: endpoint: mean survival time, higher = longer survival

With COc1ccc(CC(N)C(=O)O)cc1N(CCCl)CCCl (stereo unspecified) as the compound, how does the T/C (dose: 0.6 mg/kg/injection, schedule: Q01DX009 (ip), vehicle: carboxymethylcellulose (CMC)) read?
The T/C was 160 % of control [sample A] and 123 % of control [sample B].

And the T/C (dose: 12.5 mg/kg/injection, schedule: Q01DX001 (ip), vehicle: carboxymethylcellulose (CMC))?
The T/C was 93 % of control, 196 % of control [sample A] and 162 % of control [sample B].

Which T/C (dose: 400.0 mg/kg/injection, schedule: Q01DX001 (ip), vehicle: carboxymethylcellulose (CMC)) does the source give for O=c1[nH]cnc2c1ncn2C1CCC(CO)C1 (stereo unspecified) here?
Its T/C is 87 % of control and 162 % of control.

For O=C(NC(=S)Nc1cc(C(F)(F)F)ccc1Cl)c1cccc([N+](=O)[O-])c1, which T/C (dose: 100.0 mg/kg/injection, schedule: Q04DX002 (ip), vehicle: saline with Tween-80) is on record?
The T/C was 111 % of control and 164 % of control.

With CCCC/C=C/CO as the compound, how does the T/C (dose: 100.0 mg/kg/injection, schedule: Q01DX009 (ip), vehicle: saline with Tween-80) read?
The T/C was 103 % of control and 172 % of control.

Which T/C (dose: 15.0 mg/kg/injection, schedule: Q03DX Z (ip), vehicle: saline) does the source give for O=C(Nc1ccc(C2=NCCN2)cc1)c1ccc(C(=O)Nc2ccc(C3=NCCN3)cc2)cc1 here?
Its T/C is 121 % of control and 162 % of control.
